Hit rate of the full screen: of about 310,000 compounds, about 14,000 (4.5%) showed an effect of 50% or more. The effect is printed as a negative number. This is one part of the list.
Each compound was assayed against human ether-à-go-go-related gene (hERG) potassium channel (human, UniProt Q12809) (assay: primary screen, population patch clamp on CHO cells stably expressing hERG).
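Note: peak tail current of the secondary pulse compared with the same well before compound.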

human ether-à-go-go-related gene (hERG) potassium channel, sequence (Q12809 whole entry, looked up): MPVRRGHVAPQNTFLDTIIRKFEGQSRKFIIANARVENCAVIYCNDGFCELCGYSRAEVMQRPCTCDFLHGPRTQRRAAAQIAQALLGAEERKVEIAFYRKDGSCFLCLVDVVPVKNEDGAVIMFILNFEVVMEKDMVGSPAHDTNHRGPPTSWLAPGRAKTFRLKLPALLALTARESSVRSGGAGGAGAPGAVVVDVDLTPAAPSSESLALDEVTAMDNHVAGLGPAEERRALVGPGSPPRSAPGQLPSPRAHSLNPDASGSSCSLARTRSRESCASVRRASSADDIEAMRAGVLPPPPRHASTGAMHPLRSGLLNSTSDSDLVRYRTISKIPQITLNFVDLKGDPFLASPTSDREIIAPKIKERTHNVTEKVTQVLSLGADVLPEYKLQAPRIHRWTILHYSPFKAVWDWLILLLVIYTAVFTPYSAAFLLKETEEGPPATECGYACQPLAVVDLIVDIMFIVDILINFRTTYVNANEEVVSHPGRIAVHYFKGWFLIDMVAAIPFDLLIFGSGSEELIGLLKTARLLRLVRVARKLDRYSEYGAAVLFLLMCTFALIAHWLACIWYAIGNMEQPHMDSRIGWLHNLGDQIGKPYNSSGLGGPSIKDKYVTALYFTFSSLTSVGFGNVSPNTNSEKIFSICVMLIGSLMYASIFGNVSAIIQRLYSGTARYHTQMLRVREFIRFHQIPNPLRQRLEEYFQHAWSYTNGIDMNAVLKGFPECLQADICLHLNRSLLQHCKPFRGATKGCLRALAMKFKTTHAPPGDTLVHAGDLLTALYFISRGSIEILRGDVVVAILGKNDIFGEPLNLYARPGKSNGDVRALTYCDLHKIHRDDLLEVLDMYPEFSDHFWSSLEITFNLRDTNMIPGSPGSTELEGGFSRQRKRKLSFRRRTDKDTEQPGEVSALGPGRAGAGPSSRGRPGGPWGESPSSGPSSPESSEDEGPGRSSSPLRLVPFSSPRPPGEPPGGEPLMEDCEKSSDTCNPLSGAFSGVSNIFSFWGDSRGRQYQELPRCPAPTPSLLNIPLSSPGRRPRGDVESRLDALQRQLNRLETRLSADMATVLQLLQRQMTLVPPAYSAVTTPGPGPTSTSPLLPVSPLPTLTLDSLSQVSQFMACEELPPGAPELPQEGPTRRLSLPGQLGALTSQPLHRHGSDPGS

First: O=C(O)C(Cc1ccc(O)cc1)N1C(=O)c2c(Cl)c(Cl)c(Cl)c(Cl)c2C1=O (stereo not drawn)
Second: CC(=O)C1=C(O)C(=O)N(c2ccccn2)C1c1ccc(C)cc1 (stereo not drawn)
The “hERG current change (%, negative = inhibition) at 10uM” value of the first is lower: -1.66% for the first, 10.8% for the second.

First: CCOCCn1ccc2c(OCC(=O)Nc3ccccc3F)cccc2c1=O
Second: Cn1nc(CC(=O)NCc2ccc(F)cc2)c2ccccc2c1=O
The “hERG current change (%, negative = inhibition) at 10uM” value of the first is higher: -7.57% for the first, -11.4% for the second.

Going from `Cc1ccc(C(NC(=O)c2ccccc2)C(Cl)(Cl)Cl)cc1` (stereo not drawn) to `Cc1ccc(CSCCNS(=O)(=O)c2ccccc2)cc1`, the “hERG current change (%, negative = inhibition) at 10uM” value falls from 6.09% to -35.8%.

First: CCCCCCCC(=O)N/N=C/c1ccncc1
Second: CCCC(=O)Nc1cccc(C(=O)Nc2nccs2)c1
The “hERG current change (%, negative = inhibition) at 10uM” value of the first is lower: -28.2% for the first, -15.4% for the second.

Compared with `O=C(ONC1=NCCCCC1)c1ccc(Cl)cc1`, `O=C(c1ccc(Cl)cc1)C1CCN(C(=O)C2CC2)CC1` is lower in “hERG current change (%, negative = inhibition) at 10uM” value: -2.28% for the first, -10.7% for the second.

First: CSCCCNC(=S)N1CCN(c2ccc(C(C)=O)cc2)CC1
Second: CCOC(=O)N1CCN(C(=S)NC(=O)/C=C/c2ccc(C)cc2)CC1
The “hERG current change (%, negative = inhibition) at 10uM” value of the first is lower: -37.6% for the first, -0.681% for the second.

First: COC(=O)c1ccc(C2C(Oc3ccc(OC)cc3)C(=O)N2CCc2ccc(F)cc2)cc1 (stereo not drawn)
Second: COc1ccc(NS(=O)(=O)c2cccc(C(=O)N/N=C/c3cn(-c4ccccc4)nc3-c3ccc(OC)cc3)c2)cc1
The “hERG current change (%, negative = inhibition) at 10uM” value of the first is higher: 6.58% for the first, -11.3% for the second.

First: CCOC(=O)c1sc(NC(=O)c2cc3c(s2)CCC(C)C3)nc1C (stereo not drawn)
Second: CCC(=O)Nc1nc2c(OC)ccc(C)c2s1
The “hERG current change (%, negative = inhibition) at 10uM” value of the first is higher: 13.8% for the first, 3.79% for the second.

First: Fc1ccc(-c2csc3nnc(SCc4cccnc4)n23)cc1
Second: O=C(CSc1n[nH]c(-c2ccncc2)n1)Nc1ccc(Cl)c(C(=O)O)c1
The “hERG current change (%, negative = inhibition) at 10uM” value of the first is lower: -32.9% for the first, 15.5% for the second.

Going from `O=C(c1ccc(-n2cccn2)cc1)N1CCc2ccccc2C1` to `Cc1ccc(O)c(C(=O)c2cnn(-c3ccccc3)c2)c1`, the “hERG current change (%, negative = inhibition) at 10uM” value rises from -12.2% to 7.24%.

Going from `COc1ccccc1CNC(=O)CN1C(=O)COc2ccc(S(=O)(=O)NC3CCCC3)cc21` to `COc1ccc(S(=O)(=O)NC2CCCCCC2)cc1C(N)=O`, the “hERG current change (%, negative = inhibition) at 10uM” value falls from 12.1% to 10.6%.

Going from `Fc1ccc(NC(=S)Nc2cccc3ccccc23)cc1` to `Cc1ccc(CNC(=S)Nc2ccc(NS(=O)(=O)c3ccc(C)cc3)cc2)cc1`, the “hERG current change (%, negative = inhibition) at 10uM” value falls from 8.84% to -4.96%.

Going from `COC(=O)c1cc(NC(=O)c2cccnc2)ccc1N1CCOCC1` to `O=C(NCc1cccnc1)c1cc(S(=O)(=O)N2CCCCC2)ccc1Cl`, the “hERG current change (%, negative = inhibition) at 10uM” value rises from 13.9% to 16.7%.

Compared with `Cc1nc2ccccn2c1CN(C)C(=O)C1CCC(=O)N(CCc2cccc(F)c2)C1` (stereo not drawn), `CC(c1ccon1)N(C)Cc1c(C(=O)N(C)Cc2ccccc2)nc2ccccn12` (stereo not drawn) is higher in “hERG current change (%, negative = inhibition) at 10uM” value: -75.6% for the first, -9.17% for the second.

Going from `Cc1cc(OCC(=O)N2CCN(c3ccccc3)CC2)c2c(C)cc(=O)oc2c1` to `Cc1ccc(OCC(=O)N2CCN(S(=O)(=O)c3ccccc3)CC2)c([N+](=O)[O-])n1`, the “hERG current change (%, negative = inhibition) at 10uM” value falls from 16.1% to -45.8%.

Going from `COCCNC(=O)C1CC(=O)N(CCc2ccccc2)C1` (stereo not drawn) to `Cc1cc(Br)ccc1NC(=S)NCCc1ccccc1`, the “hERG current change (%, negative = inhibition) at 10uM” value falls from 21.2% to 5.4%.

Compared with `CO/N=C/c1ccc(N2CCN(C(=O)c3ccc(C)cc3)CC2)c([N+](=O)[O-])c1`, `CCn1cc(S(=O)(=O)c2ccc(C)cc2)c(=O)c2cc(F)c(N3CCN(C)CC3)cc21` is higher in “hERG current change (%, negative = inhibition) at 10uM” value: -74.9% for the first, -20.4% for the second.

Going from `Cn1c2ccccc2c2cc(/C=C(\NC(=O)c3ccccc3)C(=O)O)ccc21` to `O=C(NCc1ccccc1F)c1cccc(S(=O)(=O)NCc2ccccc2)c1`, the “hERG current change (%, negative = inhibition) at 10uM” value falls from 9.22% to -3.38%.

First: CC(=O)N1CCc2c(sc(NC(=O)CN3C(=O)c4ccccc4C3=O)c2C(N)=O)C1
Second: Cc1ccccc1Nc1nnc(SCC(=O)NC(=O)Nc2ccc3c(c2)OCCO3)s1
The “hERG current change (%, negative = inhibition) at 10uM” value of the first is higher: 5.3% for the first, -6.1% for the second.

Compared with `CC(=O)Nc1ccc(NC(=O)COc2ccc3c(c2)CCC3)cc1`, `COc1ccc(C(=O)C2CCCN(Cc3ccc(NC(C)=O)cc3)C2)cc1OC` (stereo not drawn) is lower in “hERG current change (%, negative = inhibition) at 10uM” value: 24.5% for the first, -21.1% for the second.

Compared with `CCN(CC)C(=O)CSc1nc(O)cc(=O)n1C`, `CCCCn1c(C)c(C(=O)OCC)c2c(CN3CCOCC3)c(O)ccc21` is lower in “hERG current change (%, negative = inhibition) at 10uM” value: 8.81% for the first, -55.9% for the second.

First: CC1(C)N=C2C(=[N+]1[O-])CCC/C2=N\O
Second: COC(=O)c1c(N)c(C#N)c2n1CCCCC2
The “hERG current change (%, negative = inhibition) at 10uM” value of the first is higher: 11.6% for the first, -2.6% for the second.

First: Cc1cccc2cc(CN(CCCN(C)C)C(=S)NCCc3ccccc3)c(=O)[nH]c12
Second: CCOC(=O)C(Cc1ccccc1)NC(=O)CCc1c(C)nc2ncnn2c1C (stereo not drawn)
The “hERG current change (%, negative = inhibition) at 10uM” value of the first is lower: -72% for the first, 7.28% for the second.

Compared with `N=C1/C(=C/c2ccc(-c3cccc(C(=O)O)c3)o2)C(=O)N=C2SC=C(c3ccccc3)N12`, `O=C(Nc1ccc(Cl)cn1)c1cccc(OCc2ccccc2)c1` is lower in “hERG current change (%, negative = inhibition) at 10uM” value: 29.9% for the first, 1.34% for the second.

First: Cc1nn(-c2ccccc2)c(C)c1/C=N/NC(=O)CSc1nnc(SCc2cccc3ccccc23)s1
Second: CCOC(=O)c1cn(Cc2ccccc2)nc1-c1ccccc1
The “hERG current change (%, negative = inhibition) at 10uM” value of the first is higher: 6.33% for the first, -8.37% for the second.

Going from `O=C(NC1=NCCS1)c1ccccc1Cl` to `O=C(NC(=S)Nc1ccccc1Br)c1ccco1`, the “hERG current change (%, negative = inhibition) at 10uM” value rises from 13.4% to 21.9%.

First: CC(C)(C)c1ccc(OCC(=O)Nc2ccc(-c3nc4cccnc4o3)cc2)cc1
Second: Cc1ccc(S(=O)(=O)Nc2cccc3ncccc23)cc1
The “hERG current change (%, negative = inhibition) at 10uM” value of the first is higher: 9.31% for the first, -13.4% for the second.

Compared with `Cc1cccc(NC(=O)CNC(=O)CCNC(=O)c2ccc(C(C)(C)C)cc2)c1C`, `O=C(O)CCCNC(=O)/C(=C\c1ccc(Cl)cc1)NC(=O)c1ccc(Br)cc1` is higher in “hERG current change (%, negative = inhibition) at 10uM” value: -6.07% for the first, 12.3% for the second.

Compared with `O=C(NCC(c1ccco1)N1CCCC1)c1cc2cc(Cl)ccc2o1` (stereo not drawn), `COc1cccc(CNC(=O)N2CCN(S(=O)(=O)c3ccc(Cl)cc3)CC2)c1` is higher in “hERG current change (%, negative = inhibition) at 10uM” value: -67.7% for the first, 11.6% for the second.

First: Cc1ccc(S(=O)(=O)CCC(=O)NCc2ccc(Cl)cc2)cc1
Second: Cc1ccc(CNC(=O)Cc2nc3nc(C)cc(C)n3n2)cc1
The “hERG current change (%, negative = inhibition) at 10uM” value of the first is lower: -3.96% for the first, 1.08% for the second.

First: COc1ccc(/C=N/NC(=O)c2ccc3nc[nH]c3c2)c(OC)c1
Second: COc1ccc(/C=N/NC(=O)c2ccc(Cn3cc([N+](=O)[O-])cn3)o2)c(OC)c1C
The “hERG current change (%, negative = inhibition) at 10uM” value of the first is higher: 25.5% for the first, 24.1% for the second.

First: CCc1ccc(CN2CCN(C(=O)c3cccc(OC)c3OC)CC2)cc1.O=C(O)C(=O)O
Second: CCOC(=O)N1CCN(C(=O)CN(c2ccc(OCC)cc2)S(C)(=O)=O)CC1
The “hERG current change (%, negative = inhibition) at 10uM” value of the first is higher: -10.3% for the first, -13.4% for the second.

First: CCC1(c2ccc(Cl)cc2)NC(=S)N(c2ccccc2)N1 (stereo not drawn)
Second: CN1N=C2c3ccccc3CCCC2C1c1ccc(F)cc1 (stereo not drawn)
The “hERG current change (%, negative = inhibition) at 10uM” value of the first is higher: 16.7% for the first, 0.747% for the second.

Going from `Cc1ccc2c(c1)c(N=NC(N)=O)c(O)n2C` to `Cc1ccc(C(=O)NN2C(=O)C3C4C=CC(C4)[C@@H]3C2=O)cc1` (stereo partly drawn), the “hERG current change (%, negative = inhibition) at 10uM” value falls from 12.7% to -0.442%.

Going from `COc1cc([N+](=O)[O-])ccc1Nc1nc(C)cc(C)n1.Cl` to `Cc1cc(Cl)c2oc(C(=O)NC(C)c3ccncn3)c(C)c2c1` (stereo not drawn), the “hERG current change (%, negative = inhibition) at 10uM” value falls from 14.5% to -11.2%.

First: CC12CCC(=O)N1C(C(=O)OCc1c(Cl)cccc1Cl)CS2 (stereo not drawn)
Second: COc1ccc(COC(=O)c2ccc3c(=O)n4c(nc3c2)CCC4)cc1F
The “hERG current change (%, negative = inhibition) at 10uM” value of the first is lower: -4.54% for the first, -2.66% for the second.

Going from `Brc1ccc2nc(CSc3ncn[nH]3)cn2c1` to `OCC#CCSc1nnc(-c2ccccc2Br)o1`, the “hERG current change (%, negative = inhibition) at 10uM” value rises from -13.1% to 4.35%.

Compared with `O=C(O)C(=O)O.Oc1ccccc1CN(CCc1ccccc1)Cc1ccccc1`, `CCCn1c2ccccc2c2cnn(CC(=O)NC3CCN(Cc4ccccc4)CC3)c(=O)c21` is lower in “hERG current change (%, negative = inhibition) at 10uM” value: 20.1% for the first, -55.1% for the second.

First: Cc1ccc2c(c1)N(CC(=O)N(Cc1ccc3c(c1)OCO3)CC1CCCO1)C(=O)C(C)O2 (stereo not drawn)
Second: Cc1ccc(/C=N/N=C2\SCC(=O)N2CC2CC2)cc1
The “hERG current change (%, negative = inhibition) at 10uM” value of the first is lower: -37% for the first, 6.26% for the second.

Compared with `CCOC(=O)CN(C(=O)CNC(=O)c1ccco1)C(C(=O)NC1CCCCC1)c1cccs1` (stereo not drawn), `CN(CCc1ccccn1)C(=O)CCC1CCCN(C(=O)CN2CCCCCC2)C1` (stereo not drawn) is higher in “hERG current change (%, negative = inhibition) at 10uM” value: 9.22% for the first, 10.1% for the second.

Going from `COCCNC(=O)c1c(C)cc(C)cc1C` to `CCOC(=O)c1csc(-c2snnc2C)n1`, the “hERG current change (%, negative = inhibition) at 10uM” value falls from 10.1% to 0.458%.

First: O=C(O)C1C2C=CC(C2)C1C(=O)NC1CCS(=O)(=O)C1 (stereo not drawn)
Second: COC(=O)[C@]1(C)CCC[C@@]2(C)C3CC[C@@]4(C)C[C@]3(CCC21)CC(=O)N4Cc1ccc(OC)cc1 (stereo partly drawn)
The “hERG current change (%, negative = inhibition) at 10uM” value of the first is higher: 13.3% for the first, 7.82% for the second.

Compared with `CCc1nn(CC(=O)NCc2cccnc2)c(=O)c2cc3occc3n12`, `COc1ccc(OC)c(NC(=O)Nc2c(O)ccc3ccccc23)c1` is lower in “hERG current change (%, negative = inhibition) at 10uM” value: -7.02% for the first, -20.7% for the second.

In the case of `Cc1ccc(N=Cc2cc3c(cc2O)OC(N)=C(C#N)C3c2ccccc2)cc1` (stereo not drawn), the “hERG current change (%, negative = inhibition) at 10uM” value is reported as -0.368%.
